Our source for the switch fluorescence ratio values is the supplement of paper PMC10126150.

Values marked as one replicate rest on one cluster of the flow cell; about a third of the high ones do not repeat.

This series deals with ATP. Kind of series: switch fluorescence ratio, 500 uM ATP over buffer (Cy3 cluster intensity, sum of 5 cycles each) (fold (ratio)); higher = stronger signal-on switching upon ATP binding; sequences stand for … in TCGTCGGCAGCGTCAGATGTGTATAAGAGACAGTTTTTTTTTTTTTTTTTTTTTTTTT…TC. Particulars: aptamer strand: ATP DNA aptamer (quencher-CACCTGGGGGAGTATTGCGGAGGAAGG + anchor), 100 nM annealed; ATP concentration: 500 uM; one replicate. The gist of the method: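 Cy3-labelled switching-strand clusters on a modified Illumina MiSeq flow-cell were annealed to 100 nM quencher-labelled ATP aptamer and imaged first in selection buffer, then after 15 min with 500 uM ATP at 22 °C. NaOH stripping and re-annealing separated each of five buffer/ATP cycles, and clusters outside 100-1000 RFU were excluded. The fluorescence ratio sums target-cycle Cy3 intensity over buffer-cycle Cy3 intensity per cluster and averages it per switch-domain sequence.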
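Note: ATP exposure 15 min at 22 °C before imaging.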

For GTCAGGTATG, the switch fluorescence ratio amounted to 0.948.

For CCGTCTAGTT, the switch fluorescence ratio turned out to be 0.985.

In the case of CACATGTTGT, the switch fluorescence ratio worked out at 0.981.

Consider GCGCCCGCAG, for which the switch fluorescence ratio was found to be 1.15.

For CGAGGTTGTT, the switch fluorescence ratio is 1.06.

As for TCGGACAGCG, the switch fluorescence ratio came out at 1.02.

Consider GTCTACCTTA, for which the switch fluorescence ratio was 1.05.

Take CGAGGGCTGG: the switch fluorescence ratio amounted to 0.965.

For the sequence GGCTGGTGAG, the switch fluorescence ratio worked out at 1.02.

Regarding AAATGATTTC, the switch fluorescence ratio amounted to 0.968.

GAGTGTCGCA: the switch fluorescence ratio came out at 0.996.

Regarding TCAATTCCG, the switch fluorescence ratio amounted to 0.964.

Turning to CGGTGCGTAG, the switch fluorescence ratio amounted to 1.03.

AGGTAGGTTA: the switch fluorescence ratio was determined as 1.

For TGTCGCCAAT, the switch fluorescence ratio came to 0.982.

As to TTGCATATGT, the switch fluorescence ratio was found to be 0.99.

Regarding CGTTCCTGGT, the switch fluorescence ratio stood at 1.01.

In the case of GCGACACGGA, the switch fluorescence ratio amounted to 1.04.

With GAAAAGCGTG, the switch fluorescence ratio is 0.963.

As for GGTTTGAAGT, the switch fluorescence ratio stood at 0.996.

Take TATGCTTAGA: the switch fluorescence ratio stood at 0.991.

Take TTGGTGCGCA: the switch fluorescence ratio was 1.02.

Turning to CTAACTATCG, the switch fluorescence ratio was determined as 1.02.

On to ATGCGTACAC, for which the switch fluorescence ratio stood at 1.05.

For TATGGTGAGA, the switch fluorescence ratio came to 1.03.

Regarding AGCACCGTCG, the switch fluorescence ratio worked out at 1.03.

For the sequence GGATCTCGCC, the switch fluorescence ratio is 1.08.

Take CGGGAAGCGG: the switch fluorescence ratio amounted to 1.01.

On to TTTACATGAG, for which the switch fluorescence ratio stood at 1.02.

With CGGCAGATGT, the switch fluorescence ratio was 0.997.

Consider CCAAAGAAGC, for which the switch fluorescence ratio was 0.977.

GGTCCTAGGC: the switch fluorescence ratio amounted to 1.06.

For CAGCATGTGT, the switch fluorescence ratio was found to be 1.02.

Consider AACATGGCCG, for which the switch fluorescence ratio was 1.09.

With TAAGCGCACA, the switch fluorescence ratio stood at 1.05.

Take CTCGACTGAG: the switch fluorescence ratio worked out at 0.979.

Take GGAGGCACGT: the switch fluorescence ratio amounted to 0.996.

Consider TCCGGCAG, for which the switch fluorescence ratio was found to be 3.06.

Regarding TAACGGGGAA, the switch fluorescence ratio came out at 1.07.

Turning to GCGTAAATA, the switch fluorescence ratio stood at 1.01.

On to AAGAACATGG, for which the switch fluorescence ratio was determined as 0.938.

As to CGGGGCAGTG, the switch fluorescence ratio was 0.982.

In the case of ATTCGCCCCA, the switch fluorescence ratio turned out to be 0.979.

As for TCATAAGGTA, the switch fluorescence ratio turned out to be 0.987.

For GTTACCGCGG, the switch fluorescence ratio worked out at 1.01.

As to TGGCATACCG, the switch fluorescence ratio came out at 1.01.

ACGGTGGTTG: the switch fluorescence ratio amounted to 1.01.

As for TTGCCTTCAT, the switch fluorescence ratio was 1.1.

In the case of TGTTCCTGGT, the switch fluorescence ratio was 1.01.

TTTAAGTTAG: the switch fluorescence ratio turned out to be 0.977.

Take TGGGGCTCTG: the switch fluorescence ratio was 0.971.

As to AGCAGCACCC, the switch fluorescence ratio is 1.08.

On to AACGAGCGCT, for which the switch fluorescence ratio turned out to be 0.973.

Take ATTATCAATT: the switch fluorescence ratio is 0.996.

TTGTAGCGA: the switch fluorescence ratio worked out at 1.69.

As to ATCGTAAGAT, the switch fluorescence ratio came to 0.988.

As to AAGACCAAAT, the switch fluorescence ratio turned out to be 1.03.

Consider GGGATATGCT, for which the switch fluorescence ratio worked out at 1.01.

Consider GGGGCTTTCA, for which the switch fluorescence ratio was 1.03.

As to TTCCTTACTC, the switch fluorescence ratio is 1.91.

As to ACTGATGTTG, the switch fluorescence ratio is 1.01.

Consider TATGTTTAAG, for which the switch fluorescence ratio amounted to 0.979.

As to AGTGCTGTTG, the switch fluorescence ratio came out at 1.02.

As to GCTCCATGCG, the switch fluorescence ratio was 0.965.

Regarding TCGGAGCAGA, the switch fluorescence ratio was 5.09.

For AATAGATCCT, the switch fluorescence ratio turned out to be 1.02.

As for CTCATGACAT, the switch fluorescence ratio stood at 1.02.
